According to US20080175871A1, “ELICITING IMPROVED IMMUNE RESPONSES” (THE BINDING SITE LIMITED, priority 1999, published 2008):
No end group written: not given here.

How the values were obtained:
sheep = assay: Immunisation of sheep with eight-branch multi-antigenic peptides; test bleeds assessed by radial immunodiffusion (Mancini); format: in vivo; conditions: for antibody response: quality (strength) of the precipitation, correlated by the avidity of the antibody: scored as weak, moderate or strong, 500 μg prime in FCA, 200 μg boosts in FIA at six weeks
Description: The following peptides had been used, with some success, as eight-branch multi-antigenic-peptides for raising antibodies in sheep. Modifying the peptides by inclusion of one or more random substitutions improved the antibody response produced.
All immunisations were performed in a standard manner with 500 μg of peptide in Freund's complete adjuvant for prime and 200 μg in Freund's incomplete adjuvant for boosts at six weeks. Test bleeds were assessed by radial immunodiffusion (Mancini) so the quality (strength) of the precipitation is correlated by the avidity of the antibody (scored as weak, moderate or strong) while the diameter of the precipitation is inversely proportional to the titre of the antibody.

[1] = molecular target: T1, native protein (Myoglobin) (Homo sapiens, UniProt P02144); assay: Immunohistology: binding of the raised antibodies to the native protein; conditions: antibodies raised in sheep
T1 construct: from tissue
T1 sequence (P02144 1-154): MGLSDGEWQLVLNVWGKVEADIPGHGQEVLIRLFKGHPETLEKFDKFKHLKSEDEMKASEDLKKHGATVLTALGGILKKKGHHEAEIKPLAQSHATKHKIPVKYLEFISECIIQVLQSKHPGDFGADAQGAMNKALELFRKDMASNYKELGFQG

[2] = after the first boost, one sheep
[3] = after the first boost, one sheep, diameter inversely proportional to titre

DPRFQDSSSSKAPPPSLPSPSRLP (DPRFQDSSSSKAPPPSLPSPSRLP; also: eight-branch multi-antigenic peptide; listed as Homo sapiens) [SEQ ID NO: 20, HGC#2 unmodified peptide, eight-branch multi-antigenic peptide (control), reference compound]
antibody response: quality (strength) of the precipitation, correlated by the avidity of the antibody (sheep; sheep test bleeds): no antibody response

FKQWMENPNNNPIHPNLRSTV (FKQWMENPNNNPIHPNLRSTV; also: eight-branch MAP core; listed as Homo sapiens) [SEQ ID NO: 14, CD13 unmodified peptide, eight-branch multi-antigenic peptide (control), reference compound]
mean diameter of the precipitation (sheep; even after three reboosts in two of the animals, diameter inversely proportional to titre): 11.5 mm
antibody response: quality (strength) of the precipitation (sheep; three different sheep, even after three reboosts in two of the animals): no antibody response or, at best, weak

FKQWXENPNNNPIHPNLRSTV [SEQ ID NO: 15]
antibody response: quality (strength) of the precipitation (sheep; [2]): strong
diameter of the precipitation against the unmodified peptide (sheep; [3]): 9 mm

G P N I C T T R G V S S C Q Q (GPNICTTRGVSSCQQ; cysteine pairing not given here; also: eight-branch multi-antigenic peptide; listed as Homo sapiens) [SEQ ID NO: 16, CD61 unmodified peptide, eight-branch multi-antigenic peptide (control), reference compound]
antibody response: quality (strength) of the precipitation, correlated by the avidity of the antibody (sheep; sheep test bleeds): no antibody response or, at best, weak

G P X I C T T R G V S S X Q Q [SEQ ID NO: 17]
antibody response: quality (strength) of the precipitation (sheep; [2]): strong
diameter of the precipitation (sheep; [3]): 9 mm

QSKHPGDFGADAQGAMNKALQVXQSKHPDFGADAQGAMNKAL [SEQ ID NO: 22, Myoglobin peptide extended with inclusion of a randomised position (twenty amino acids)]
antibody response compared to unmodified / control peptide or other pool size (in words) (sheep; sheep): improved the response
diameter of the precipitation (sheep; sheep test bleeds, diameter inversely proportional to the titre of the antibody): 8.4 mm
binding of the antibodies produced to the native protein in immunohistology [1]: bind to the native protein
